# Assay results published in PubChem BioAssay AID686979 (National Center for Advancing Translational Sciences (NCATS), 2013).
# The whole screen tested about 420,000 compounds, of which about 50,000 (12%) were called active. The shares of active, inactive and inconclusive entries below differ from those in the screen. The call rests on the fitted dose curve; in most records, active means well fitted inhibition curve with a large enough effect; inconclusive means small, poorly fitted or top-dose-only effect; inactive means flat fitted curve, though single readings scatter. No potency is given beside an inconclusive call; the fits are too rough.
# Test: qHTS for Inhibitors of human tyrosyl-DNA phosphodiesterase 1 (TDP1): qHTS in cells in presence of CPT; further: nearly all actives have a fitted effect of over 55% in size
# Conditions: chicken DT40 Tdp1-/-;hTDP1 cells + 20 nM CPT, ATP luminescence, 48 h; activity change, negative = growth inhibition: at 46.2 µM (top of the series) unless noted
# Method in brief: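 Cell growth measured by CellTiter-Glo luminescence after a minimum 48 h, 37 C compound exposure with 20 nM CPT in Tdp1-knockout DT40 cells stably expressing hTDP1, seeded 400/well; qHTS titration format.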
# On the % scale 0 is the no-effect control and ±100 the full control effect; potency means the concentration at half of the fitted maximal effect; tags describe the fitted curve by direction and shape.
Compound,Potency,"activity change, negative = growth inhibition"
CN(C)c1ncc2nc(CCc3ccccc3)c(=O)n(Cc3cccs3)c2n1,"inconclusive [inhibitor, single point]",–
Clc1ccccc1Cc1noc(CN2CCCCC2c2ccccn2)n1 (stereo unspecified),"inconclusive [inhibitor, single point]",–
COC(=O)[C@H](CCSC)NC(=O)NC1CC1,–,inactive: -3.43%
COC(=O)[C@@H](Cc1c[nH]c2ccccc12)NC(=O)CCC(=O)c1ccc(Br)cc1,–,inactive: -7.73%
CCOc1ccc(OCCSc2nc(N)cc(=O)[nH]2)cc1,"inconclusive [inhibitor, single point]",–
Cc1sc2ccccc2[n+]1CCCC[n+]1c(C)sc2ccccc21,active: 4.47 µM,–
Cc1nc(N2CCN(C(=O)c3ccc(Cl)cc3)CC2)c(C#N)c2c1COC(C)(C)C2,active: 29.1 µM,–
CN(CC(=O)Nc1ccccc1Cl)C(=O)c1ccccc1Sc1ccccc1C#N,"inconclusive [inhibitor, single point]",–
CC1CCN(Cc2ccc(NC(=O)C3CCN(c4nnc(-n5cccc5)s4)CC3)cc2)CC1,active: 18.4 µM,–
CCN(Cc1ccccc1)C(=O)CC(=O)N(CC)Cc1ccccc1,–,inactive: 15.9%
CCCN(CC(=O)NC(=O)NC1CCCCC1)CC(=O)Nc1cc(Cl)ccc1Cl,"inconclusive [inhibitor, single point]",–
CCn1c(=O)cc(OCC(=O)NCc2ccccc2Cl)c2ccccc21,"inconclusive [inhibitor, single point]",–
COc1cccc(NC(=O)c2ccccc2NC(=O)c2ccncc2)c1,"inconclusive [inhibitor, single point]",–
O=C1NC2c3c(Cl)sc(Cl)c3C(=O)C2O1 (stereo unspecified),active: 20.6 µM,–
Cc1cc(S(=O)(=O)NCc2ccccc2)ccc1OCC(=O)NCc1ccccn1,–,inactive: -9.71%
Cc1oc2nc(SCC(=O)Nc3ccc(S(N)(=O)=O)cc3)nc(NC(=O)c3ccccc3)c2c1C,"inconclusive [inhibitor, single point]",–
COc1ccc2c(c1)-c1nc(NC(=O)c3ccccc3F)sc1CC2,"inconclusive [inhibitor, single point]",–
CCN(CC)C(=O)c1sc2c(c1C)c(=O)n(-c1ccc(C)c(C)c1)c(=O)n2Cc1cc(=O)n2c(C)cccc2n1,"inconclusive [inhibitor, single point]",–
CC(=O)C(C(C)=O)C(NC(=O)c1cccnc1)(C(F)(F)F)C(F)(F)F,active: 7.31 µM,–
COc1ccc(CNC(=O)CSc2ncc3c(n2)-c2cc(Cl)ccc2N(Cc2ccccc2)S3(=O)=O)cc1OC,active: 14.6 µM,–
O=C(NNC(=O)c1cccc2ccccc12)c1ccc(Cl)cc1Cl,"inconclusive [inhibitor, partial curve]",–
COc1ccnc(-n2cccc2/C=N/O)c1C#N,–,inactive: 0.0433%
Cc1cccc(-c2nnc3sc(-c4ccccc4C)nn23)c1,"inconclusive [inhibitor, partial curve]",–

Compound,Potency,"activity change, negative = growth inhibition"
CCn1c(=O)n(CC)c2cc(N3CCCC3)c(NC(=O)c3ccccc3OC)cc21,active: 6.51 µM,–
CCS(=O)(=O)c1ccc2oc(Nc3ccccc3Br)nc2c1,"inconclusive [inhibitor, single point]",–
COc1ccc(/C=C/C(=O)NCc2cn(C)nc2C)cc1COc1ccc(Br)cc1,–,inactive: -8.35%
O=S(=O)(c1cccc(NC(=S)N2CCN(c3ccccc3)CC2)c1)C(F)F,active: 13 µM,–
Cc1nnc(SCc2nc(-c3ccc(Cl)cc3)no2)n1-c1ccc(F)cc1,"inconclusive [inhibitor, single point]",–
CCc1ccc2nc(N(CCCN(C)C)C(=O)c3ccc(S(=O)(=O)N(C)C4CCCCC4)cc3)sc2c1,active: 16.4 µM,–
COc1cc(C#Cc2ccc3cc(CCCO)oc(=O)c3c2)cc(OC)c1,active: 0.651 µM,–
Cc1nnc2ccc(-c3ccc(NS(=O)(=O)c4ccc(Cl)s4)cc3)nn12,"inconclusive [inhibitor, single point]",–
O=C(c1ccc2c(=O)n(-c3ccccc3)c(=S)[nH]c2c1)N1CCCCC1,active: 6.51 µM,–
CC1(C)CC(=O)C2=C(C1)OC(N)=C(C#N)C2c1cccs1 (stereo unspecified),–,inactive: -23.9%
Cc1cc(C)c2oc(C(=O)Nc3nnc(C(C)C)s3)cc(=O)c2c1,"inconclusive [inhibitor, single point]",–
Cc1ccc(Cn2cc(/C=C(/C#N)C(=O)Nc3cccc(Cl)c3)c3ccccc32)cc1,"inconclusive [inhibitor, partial curve]",–
O=C(Cn1ncc2c([nH]c3ccccc32)c1=O)N1CCN(c2ccc(F)cc2)CC1,–,inactive: -14.6%
O=C(c1ccccc1)n1nc(-c2ccco2)nc1NCc1cccs1,"inconclusive [inhibitor, partial curve]",–
CCOC(=O)C1CCN(C(=O)CCCn2nc(C)c3c(C)n(-c4ccc(C)cc4)nc3c2=O)CC1,"inconclusive [inhibitor, single point]",–
CCN(CC)CCN1C(=O)C(=O)/C(=C(/O)c2ccc(OC)c(OC)c2)C1c1ccccn1 (stereo unspecified),–,inactive: 0.331%
NC(=O)c1sc2nc3c(c(-c4cccs4)c2c1N)CCCCC3,"inconclusive [inhibitor, partial curve]",–
Cc1cccc(N(C)C(=O)CN(C)S(=O)(=O)c2ccc3[nH]c4c(c3c2)CCCC4)c1,active: 23.1 µM,–
CCOc1ccccc1NC(=O)CSc1nc2[nH]ncc2c(=O)[nH]1,–,inactive: -2.08%
CCc1ccc(NC2=CC(=O)CC(c3ccco3)C2)cc1 (stereo unspecified),"inconclusive [inhibitor, single point]",–
CCC(=O)NC(=S)Nc1cccc(-c2nc3ncccc3o2)c1,–,inconclusive: -30.2% [inhibitor]
N#Cc1nc(-c2ccccc2F)oc1NCCN1CCOCC1,"inconclusive [inhibitor, single point]",–
O=C(Nc1cccc2ccccc12)c1cnn2c1NC(=C1CC1)C=C2C(F)F,"inconclusive [inhibitor, single point]",–
